Article PMC12040169 (PLOS Biology, 2025)
The other results are listed elsewhere or left out.

test system: T1, C. trachomatis L2/434/Bu expressing GFP (CTL2-GFP); parameters: species or system HeLa; C. trachomatis total inclusion area by high-content imaging, normalised to DMSO; conditions: total inclusion area; 28.5 h, 10 µM; inhibitor
T1 construct: L2/434/Bu GFP intracellular growth in HeLa cells
Procedure, shortened: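 Following bulk GFP and resorufin fluorescence reads, infected cells were fixed, Hoechst-stained and imaged on a high-content platform. Inclusion total area and number per well served as growth proxies; nuclei counts indicated host viability. MICs were derived as for the fluorescence assay.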

SMILES | % of control remaining
Cc1ccc(NS(=O)(=O)N(C)C)c(C)c1 [CBK005246] | 85.5423
Nc1nc(=O)c2cnc3c(F)cccc3c2s1 [CBK291249] | 136.401
CCOC(=O)c1c(CN(C)C)n(-c2ccccc2)c2cc(Br)c(OC)cc12 [CBK115360] | 65.157
O=C/C(=C\Nc1ccc(S(=O)(=O)N2CCCCC2)cc1)c1nc2ccccc2o1 [CBK262281] | 97.1734
Cn1ccc(C2CCCCCN2C(=O)c2cc(C3CC3)on2)n1 (centres unmarked) [CBK283050] | 97.3108
O=C(CCCc1c[nH]c2ccccc12)Nc1cccc(C(=O)O)c1 [CBK287175] | 89.8057
Cc1nn(CCC#N)c(C)c1[C@@H]1C=C[C@@H](NC(=O)Nc2ccccc2)C1 [CBK289173] | 112.362
Cc1nc(Nc2c(Cl)cc(S(N)(=O)=O)cc2Cl)sc1C(=O)Nc1ccccc1 [CBK265335] | 79.3256
CC(C)Cn1c(=O)[nH]c2ncc(-c3cccc4ccccc34)nc21 [CBK064194] | 152.188
CCN(C(=O)c1cnccn1)C(CC1CCCCC1)c1ccccc1 (centres unmarked) [CBK061638] | 18.9625
CC1CCc2n[nH]c(C(=O)NC3CN4CCC3CC4)c2C1 (centres unmarked) [CBK283193] | 84.5091
CCOC(=O)COc1ccc(/C=C2/SC(=S)N(c3cccc(C(=O)O)c3)C2=O)cc1 [CBK265632] | 108.426
COCCCn1c(=O)[nH]c2ncc(-c3cccc(OC)c3)nc21 [CBK064519] | 75.2552
Cc1noc(C)c1C(=O)N(C)CC(=O)Nc1ccc(Cl)c(C(F)(F)F)c1 [CBK295363] | 113.389
N#Cc1sc(N)c2ccc(-c3ccncc3)nc12 [CBK019761] | 99.8248
COC(=O)c1ccsc1NC(=O)c1cc(-c2ccc(C)o2)nc2ccc(Br)cc12 [CBK267752] | 113.819
CN1CCC(N(C)C(=O)c2ccc3nccnc3c2)CC1 [CBK269096] | 100.232
O=C(Nc1ccc2oc(-c3cccnc3)nc2c1)c1cc([N+](=O)[O-])ccc1N1CCOCC1 [CBK268674] | 128.684
Cc1ccc(/C=C/C(=O)O)cc1S(=O)(=O)NCC1CCCO1 (centres unmarked) [CBK287267] | 104.332
COc1ccc(Cl)cc1NC(=O)CN(C1CCCCC1)S(=O)(=O)c1ccccc1 [CBK265159] | 80.8728
COc1ccc(C(C)C)cc1-c1cnc(N)c(NC2CCCCC2)n1 [CBK063618] | 97.3548
CN(C(=O)CN1CCN(c2cc(-c3ccsc3)ncn2)CC1)c1ccccc1 [CBK091129] | 149.177
CN(C)CCN1C(=O)C(O)=C(C(=O)c2ccc(S(=O)(=O)N3CCOCC3)cc2)C1c1ccccc1 (centres unmarked) [CBK264668] | 107.879
C=CCn1c(SCC(=O)N2CCN(c3ccccc3)CC2)nnc1-c1ccc(N)cc1 [CBK267956] | 102.619
CN1CCN(c2snnc2CO)CC1 [CBK025626] | 92.0507

SMILES | % of control remaining
CCC(C)(C)c1ccc(S(=O)(=O)N2CCN(Cc3cccc4cccnc34)CC2)cc1 [CBK062830] | 70.3935
CC(C)CCNCc1ccc(-c2cn(CC(=O)NCc3ccc(C(F)(F)F)cc3)cn2)cc1 [CBK165976] | 35.9951
Fc1cc(Cl)ccc1NC(=S)NCCN1CCOCC1 [CBK268441] | 106.207
COc1cc(C=C2C(=O)OC(C)(C(C)(C)C)OC2=O)cc(Br)c1OC (centres unmarked) [CBK028893] | 83.4661
COC(=O)CNC(=O)c1cc(-c2ccc(C)s2)nc2c1cnn2C(C)C [CBK305040] | 66.716
CCn1c(=O)n(CC(=O)N2C(C)CCCC2C)c2cccnc21 (centres unmarked) [CBK283825] | 111.188
CC(C)Nc1cncc(OCc2ccc(Cl)c(Cl)c2)n1 [CBK115653] | 93.3415
O=C(N/N=C/c1cc(Br)c(Br)o1)c1cccc(F)c1 [CBK261688] | 42.0608
c1coc(CNc2cncc(-c3cccc4ccccc34)n2)c1 [CBK065573] | 78.9159
O=C(N[C@@H]1CNCCC[C@H]1O)c1ccc(OCCN2CCCC2)cc1 [CBK289070] | 130.253
COc1ccc([C@]23CN(C)C[C@H]2CCN(C(=O)Nc2ccc(Cl)c(F)c2)C3)cc1OC [CBK081140T] | 62.8295
Cc1cccc(-c2csc3c(=O)[nH]c(N4CCC(C(=O)NCCc5cccnc5)CC4)nc23)c1 [CBK215627] | 110.317
C[C@@H](Nc1nc(-c2ccco2)cnc1N)c1ccccc1 [CBK063737] | 152.348
CC(=O)c1ccc(NC(=O)NC[C@H]2C[C@@H]3CC[N@]2C[C@@H]3CN2CCCCC2)cc1 [CBK288766] | 83.7425
COc1ccc(OCc2ncc(C(C)(C)C)o2)c(C(C)=O)c1 [CBK305079] | 67.8884
CCN(CC)CCn1c(=N)n(CC(=O)c2cccs2)c2ccccc21 [CBK278240B] | 95.1115
CC(NS(=O)(=O)c1cccs1)c1ccccc1 (centres unmarked) [CBK043601] | 96.5719
CC(=O)c1sc(NC(=O)c2ccc(N3C(=O)CCC3=O)cc2)nc1C [CBK287334] | 113.064
O=C(NCc1cccs1)c1ccc2nc[nH]c2c1 [CBK153320] | 114.511
Cc1[nH]c2ccccc2c1Cc1n[nH]c(=S)n1Cc1ccccc1 [CBK266985] | 67.6948
CC(=O)c1ccc(-c2cc(F)cc3c2OC(CN)C3)s1 (centres unmarked) [CBK307513] | 31.2704
CC(=O)N1CCC2(CCCC[C@H]3CN(C(C)C)CC[C@@H]3NC(=O)CNC2=O)CC1 [CBK292133] | 98.1515
CCOC(=O)CN1C(=O)S/C(=C/c2cc(C)n(-c3cc(C)ccn3)c2C)C1=O [CBK264731] | 106.879
c1nc(OC2CCOC2)cc(N2CCCC2)n1 (centres unmarked) [CBK115899] | 80.2907
CCN1C(=O)CC(C(=O)O)S/C1=N\c1ccc(OC)cc1 (centres unmarked) [CBK287266] | 87.0781
